According to PubChem BioAssay AID493035 (The Scripps Research Institute Molecular Screening Center, 2011):
Among all 2,000 compounds or so, about 45 (2%) were called active.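 Rule for the calls: active = inhibition above the mean of all tested compounds plus 3 SD (cut at about 49% in these data); inactive = the rest.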 The list shows a part of the results.

The compounds below were run against Perilipin-5 (Homo sapiens) + 1-acylglycerol-3-phosphate O-acyltransferase ABHD5 (Homo sapiens) (UniProt Q00G26+Q8WTS1) (assay: blockers of ABHD5 binding to perilipin-5 – cell lysate, split luciferase complementation, luminescence, NIH validation set, pilot screen (AID 493035;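 note: 0% = DMSO only wells while the 100% control is not stated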)). Settings: split G. princeps luciferase complementation, lysates, 4 h; at 7.9 µM, active compounds read high.
Sequence of UniProt Q00G26 (Q00G26 whole entry, looked up): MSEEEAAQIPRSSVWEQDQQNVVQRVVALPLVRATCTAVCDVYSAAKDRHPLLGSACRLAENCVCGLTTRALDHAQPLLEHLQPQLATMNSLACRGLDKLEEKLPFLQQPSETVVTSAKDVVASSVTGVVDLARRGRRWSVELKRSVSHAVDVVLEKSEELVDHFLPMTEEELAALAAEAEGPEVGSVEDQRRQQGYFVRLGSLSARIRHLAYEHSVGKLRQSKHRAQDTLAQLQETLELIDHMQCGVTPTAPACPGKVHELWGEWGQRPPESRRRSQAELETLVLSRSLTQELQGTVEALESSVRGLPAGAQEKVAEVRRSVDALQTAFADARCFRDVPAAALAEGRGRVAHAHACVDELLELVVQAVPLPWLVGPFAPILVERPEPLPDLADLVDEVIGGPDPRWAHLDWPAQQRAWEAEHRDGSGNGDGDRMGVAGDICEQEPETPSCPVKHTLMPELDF
Sequence of UniProt Q00G26 (Q8WTS1 whole entry, looked up): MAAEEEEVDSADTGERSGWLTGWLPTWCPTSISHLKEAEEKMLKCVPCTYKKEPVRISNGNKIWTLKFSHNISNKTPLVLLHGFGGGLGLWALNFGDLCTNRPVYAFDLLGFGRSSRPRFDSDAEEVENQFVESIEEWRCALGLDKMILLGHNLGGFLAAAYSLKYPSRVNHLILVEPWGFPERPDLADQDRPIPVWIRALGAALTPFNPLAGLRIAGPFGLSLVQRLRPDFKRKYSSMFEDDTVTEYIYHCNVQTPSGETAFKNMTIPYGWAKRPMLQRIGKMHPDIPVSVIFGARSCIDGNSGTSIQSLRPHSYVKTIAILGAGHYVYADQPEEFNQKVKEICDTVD

inhibition, inactive:
COc1cccc(C2CC(=O)C3=C(C2)Nc2ccccc2N(C(=O)CCC(=O)O)C3c2ccc(F)cc2)c1 (stereo unspecified) 0.5%
CC(=O)NC(NC(=S)N1CCCCCC1)C(Cl)(Cl)Cl (stereo unspecified) -13%
COc1ccc(-c2nc(C)c(C(C)=O)n2O)cc1OC 38.2%
CC(C)(C)N(Cc1ccccc1)C(=O)c1ccc(Br)o1 -10.2%
CCOC(=O)C(Cc1cc(C(C)=O)ccc1OC(C)C)C(=O)OCC -3.49%
COc1ccc(CN(CCN(C)C)c2ccccn2)cc1 -3.99%
CCCNC(C)C(=O)Nc1ccccc1C (stereo unspecified) -6.92%
CC(COc1ccccc1)N(CCCl)Cc1ccccc1 (stereo unspecified) -2.48%
CCCCC[C@H](O)/C=C/[C@@H]1[C@@H](C/C=C\CCCC(=O)O)[C@@H](O)C[C@H]1O -7.38%
CN(CCO)CC(O)Cn1cnc2c1c(=O)n(C)c(=O)n2C (stereo unspecified) (tested in a mixture with another compound) -14%
Cc1nc(C(=O)Nc2ccccc2Cl)cc2c1[nH]c1ccccc12 -2.1%
COc1ccc2c(c1OC)C(=O)NC(C)=C(C(=O)OC(C)(C)C)C2O (stereo unspecified) 2.87%
COc1ccc(CNC(=O)c2c(O)c3cccc4c3n(c2=O)CCC4)cc1 3.86%
O=C1NC2(Nc3ccccc31)C(=O)Nc1ccc(Br)cc12 (stereo unspecified) 9.32%
COc1ccc(CC(=O)NCC2(c3ccc(OC)c(OC)c3)CCOCC2)cc1 -6.16%
O=C(O)[C@H](Cc1ccccc1)NC(=O)N1CCC(Cc2ccccc2)CC1 -4.64%
COc1cc(COc2ccc3c(C)c(Cc4ccccc4)c(=O)oc3c2)cc(OC)c1OC 12.4%
O=C(Cc1ccccc1)NCC(=O)OCC(=O)c1ccccc1Cl -14.4%
Cc1cnc(C(=O)N2CCCC(C(=O)c3ccc(Cl)cc3C)C2)cn1 (stereo unspecified) 2.61%
CCOc1ccc(C(=O)Nc2ccc(N3CCN(C(C)=O)CC3)cc2)cc1[N+](=O)[O-] 3.94%
Cn1c(Oc2ccc3c(c2)OCO3)nc2c1c(=O)n(Cc1ccccc1)c(=O)n2C -4.73%
COc1ccc2c(=O)c(-c3cnn(-c4ccccc4)c3)c(C)oc2c1 11.2%
Fc1cccc(Cc2noc(CN3CCN(c4cnccn4)CC3)n2)c1 -12.8%
C[C@]12CCC(=O)C=C1CC[C@@H]1[C@@H]2[C@@H](O)C[C@@]2(C)[C@H]1CC[C@]2(O)C(=O)COC(=O)CCC(=O)O 0.93%
CC(C)(C)NC[C@H](O)COc1nsnc1N1CCOCC1 4.56%
CCc1cccc(OC2OC(CO)C(O)C(O)C2NC(C)=O)c1 (stereo unspecified) -11.2%
CCCc1c(OCCCCc2nn[nH]n2)ccc(C(C)=O)c1O 3.16%
C=CCc1cccc2cc(C(=O)Nc3ccc(CC(=O)O)cc3)c(=O)oc12 -5.87%
CCN1CCN(C(=O)N[C@@H](C(=O)N[C@@H]2C(=O)N3[C@@H]2SC(C)(C)[C@@H]3C(=O)O)c2ccccc2)C(=O)C1=O -3.37%
CCc1cc2c(C)cc(=O)oc2cc1OC(=O)C1CCCN1C(=O)OC(C)(C)C (stereo unspecified) -2.49%
COc1cc(CNc2nnnn2C)ccc1OCc1ccc(F)cc1Cl 2.43%
O=C(COc1ccc2c(-c3ccccc3)cc(=O)oc2c1)NCc1cccs1 9.91%
O=c1cc(-c2ccccc2)oc2cc(OCc3ccccc3)cc(O)c12 -10.6%
C/C(=N\N=C1\NC(=O)C(CC(=O)Nc2ccc(Cl)cc2)S1)c1ccco1 (stereo unspecified) 15.2%
CC(C)Cc1cc(C(=O)N2CCC(N3CCC(C(=O)N4CCCC4)CC3)CC2)n[nH]1 -3.07%
Nc1nc(SCc2ccc([N+](=O)[O-])cc2)c2ncn(C3OC(CO)C(O)C3O)c2n1 (stereo unspecified) -2.31%
CCOc1ccc2nc(NC(=O)NC3CCCCC3)sc2c1 -7.09%
O=C(N1CCCCC1)C1(c2ccccc2)CCOCC1 -5.27%
CCCC(=O)Nc1ncnc2c1ncn2[C@@H]1O[C@@H]2COP(=O)(O)O[C@H]2[C@H]1OC(=O)CCC -7.86%
Cc1ccc(CN2CCN(Cc3cn[nH]c3C3CCCCC3)CC2CCO)cc1 (stereo unspecified) -7.54%
O=C(c1cccnc1)N1N=C(C2CC2)CC1(O)C(F)(F)F (stereo unspecified) 2.77%
COC(=O)c1ccc(C(=O)OC)c(NC(=O)C(C)C)c1 -13.5%
COCc1cc(=O)[nH]c(Nc2nc3ccccc3o2)n1 0.3%
CC1CCCc2sc3ncn(N)c(=N)c3c21 (stereo unspecified) -6.43%
O=c1oc2c(CN3CCCCC3)c(O)ccc2c2c1CCCCC2 6.3%
CC(=O)[C@@H]1[C@@H](C(=O)c2ccc(C)cc2)[C@]2(C(=O)Nc3ccccc32)[C@H]2C=Cc3cc(F)ccc3N12 9.57%
COc1ccc2c(c1O)Cc1ccccc1C2=O 13.4%
CC(=O)Nc1ccc2[nH]c(C)c(CC=C(Cl)Cl)c(=O)c2c1 -10.7%
O=C(O)c1ccccc1C(=O)OCCCCOC(=O)c1ccccc1C(=O)O -1.56%
CC(=O)OCC#CCSc1nc2ccccc2n1C -5.15%
CCCC(=O)O[C@]1(C(=O)COC(C)=O)CC[C@H]2[C@@H]3C[C@H](F)C4=CC(=O)C=C[C@]4(C)[C@@]3(F)[C@@H](O)C[C@@]21C 5.29%
Cn1nnnc1SCC1=C(C(=O)O)N2C(=O)[C@@H](NC(=O)[C@H](O)c3ccccc3)[C@H]2SC1 7.59%
O=C(NNC(=O)c1cccs1)c1ccco1 -7.31%
COC(=O)C1=C(C)N(C)C(=S)NC1c1ccc(Cl)cc1 (stereo unspecified) -3.32%
OCCN1CCN(CCCN2c3ccccc3Sc3ccc(Cl)cc32)CC1 -1.53%
CCn1c(O)c(/C=C2\C=Nc3ccccc32)sc1=O 5.41%
